Source: PubChem BioAssay AID686978 (National Center for Advancing Translational Sciences (NCATS), 2013)
Screen size: about 420,000 compounds; about 64,000 (15%) were called active. Inconclusive results, whose numbers are uncertain, are shown with a selection of clear calls. Calls come from the whole dose curve; as a rule, active = well fitted inhibition curve with a large enough effect; inconclusive = small, poorly fitted or top-dose-only effect; inactive = flat fitted curve, though single readings scatter. Potencies of inconclusive entries are left out as doubtful fits.

Experiment: qHTS for Inhibitors of human tyrosyl-DNA phosphodiesterase 1 (TDP1): qHTS in cells in absence of CPT; note: nearly all actives have a fitted effect of over 55% in size
Conditions: DT40 Tdp1-/- hTDP1 cells, no CPT, ATP luminescence, 48 h; activity change, negative = growth inhibition: at 46.2 µM (top of the series) unless noted
How it was run: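 No-CPT arm: Tdp1-/-;hTDP1 DT40 cells (400/well) plus compounds, incubated ≥48 hr at 37 °C. Readout CellTiter-Glo luminescence.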
% is set by controls: 0 for no effect and ±100 for the full control effect; potency is the fitted concentration of half-maximal effect; tags give direction and shape of the fitted curve.

SMILES | Potency | activity change, negative = growth inhibition
CCN(CC)CCN(C(=O)c1ccc(S(=O)(=O)N2CCCCC2)cc1)c1nc2cc3c(cc2s1)OCO3 | inconclusive [inhibitor, single point] | 
COc1cc(/C=C2\CC/C(=C\c3ccc(OCCO)c(OC)c3)C2=O)ccc1OCCO | active: 23.1 µM | 
CCOC(=O)[C@]12CCCC=C1N(CCC1=CCCCC1)C(=O)[C@H](CC(=O)N1CCN(C(=O)C3CC3)CC1)C2 | inconclusive [inhibitor, single point] | 
COc1ccc(-c2noc(CCC(=O)NCc3cc(Br)ccc3OC)n2)cc1 | active: 18.4 µM | 
CC(C)Oc1ccc(CNC(=O)Nc2ccc3c(c2)N(C)C(=O)c2ccccc2S3)cc1 | active: 23.1 µM | 
COc1ccccc1C(CNc1ncccc1[N+](=O)[O-])N(C)C (configuration not stated) | inconclusive [inhibitor, single point] | 
Cc1ccc(S(=O)(=O)CNC(=S)c2ccc3ccccc3c2)cc1 | active: 18.4 µM | 
CC1=CC(C)[C@H](/C=N/n2c(=O)[nH]c3c([nH]c4ccc(C)cc43)c2=O)C(C)C1 (some centres not stated) | active: 13 µM | 
CC(C(=O)Nc1cccc(S(=O)(=O)N2CCOCC2)c1)N1CCN(c2ccc(F)cc2)CC1 (configuration not stated) | inconclusive [inhibitor, single point] | 
CCCc1cc(=O)oc2cc(C)cc(OC(C)C(=O)NCCN3CCOCC3)c12 (configuration not stated) |  | inactive: -1.36%
CC(Oc1ccccc1)C(=O)Nc1cccc(-c2nc3ccccc3[nH]2)c1 (configuration not stated) | inconclusive [inhibitor, single point] | 
Cc1cccc(Cn2c(SCc3ccc(C(=O)N4CCC(C)CC4)cc3)nc3ccncc32)c1 | inconclusive [inhibitor, single point] | 
Cc1[nH]n(-c2ccccc2)c(=O)c1/C=N/N1C(=O)c2cccc3cccc(c23)C1=O | active: 16.4 µM | 
CCOc1ccc(C2C3=C(Nc4nc(N)[nH]c(=O)c42)c2ccccc2C3=O)cc1 (configuration not stated) | inconclusive [inhibitor, single point] | 
CCOC(=O)C1=CCN(S(=O)(=O)c2ccc(F)cc2)C1c1ccc(Br)cc1 (configuration not stated) | inconclusive [inhibitor, single point] | 
OC(c1ccc(F)cc1)C(CN1CCOCC1)c1ccccc1 (configuration not stated) | inconclusive [inhibitor, single point] | 
Cc1sc2nc(CN3CCCCC3)nc(N3CCN(C(=O)c4ccco4)CC3)c2c1C |  | inactive: -4.38%
O=C1CCCC(=O)C1=Cc1c[nH]c2ccccc12 | inconclusive [inhibitor, partial curve, poor fit] | 
Cc1ccc(S(=O)(=O)Nc2cnc3ccccc3c2)cc1 | inconclusive [inhibitor, partial curve, poor fit] | 
Cc1ccc(/C=C2\NC(=S)NC2=O)cc1[N+](=O)[O-] | inconclusive [inhibitor, single point] | 
NC(=O)C1CCN(c2oc(/C=C/c3ccccc3)nc2S(=O)(=O)c2ccccc2)CC1 | inconclusive [inhibitor, single point] | 

SMILES | Potency | activity change, negative = growth inhibition
N=c1oc2ccccc2cc1-c1nc(-c2ccc(Cl)cc2)cs1 |  | inactive: -26.5%
O=c1ccc2ccc(OCCOc3cccc(Cl)c3)cc2o1 | inconclusive [inhibitor, single point] | 
Cc1noc(/C=C/N(C)C)c1S(=O)(=O)N1CCN(c2ccc(F)cc2)CC1 | inconclusive [inhibitor, single point] | 
Cn1c(Cn2cnc([N+](=O)[O-])n2)nnc1SCC(=O)Nc1ccccc1 |  | inactive: -6.71%
COc1ccccc1-c1ccc(SCc2ccc([N+](=O)[O-])cc2)nn1 | inconclusive [inhibitor, single point] | 
O=C(Cn1cnc2cc([N+](=O)[O-])ccc2c1=O)Nc1cccc2ccccc12 | inconclusive [inhibitor, partial curve] | 
O=C(NCCO)c1cccc2c1-c1ccccc1C2=O | inconclusive [inhibitor, partial curve, poor fit] | 
Cc1ccc(NC(=O)NCCOCCn2c(=O)oc3ccccc32)cc1F | active: 5.8 µM | 
O=C(c1oc2ccccc2c1CSCc1ccccc1)N1CCN(c2ncccn2)CC1 | inconclusive [inhibitor, single point] | 
Nc1nonc1-n1nnc(C(=O)N/N=C/c2cc(Br)ccc2O)c1CSC1=NCCS1 | active: 6.51 µM | 
CCS(=O)(=O)Nc1cccc(C2=NN(S(=O)(=O)c3ccc(C)cc3)C(c3ccco3)C2)c1 (configuration not stated) | inconclusive [inhibitor, single point] | 
O=C(N/N=C/c1ccco1)c1cc(-c2ccccc2)n[nH]1 | inconclusive [inhibitor, partial curve, poor fit] | 
Cc1cccc(C)c1NC(=S)NC(C)(C)CO |  | inactive: -4.43%
CCOc1ccc(/C=N/NC(=O)c2c(-c3ccccc3)noc2C)cc1 |  | inactive: -29.7%
CCn1c(=O)c2c(nc(SCC(=O)N3CCC(C)CC3)n2C)n(C)c1=O | inconclusive [inhibitor, single point] | 
CCOC(=O)c1cc(NC(=O)N2CCCc3ccccc32)c(C)nc1C | inconclusive [inhibitor, partial curve, poor fit] | 
CCCCCN(C(=O)CCC(=O)OCC(=O)N(C)Cc1ccccc1C)c1c(N)n(CCCC)c(=O)[nH]c1=O |  | inactive: -21.7%
COc1ccc(S(=O)(=O)N2CCC(C(=O)NCc3cccs3)CC2)cc1 | inconclusive [inhibitor, partial curve, poor fit] | 
Cc1nc2cc(-c3ccc(F)cc3)[nH]n2c(=O)c1C | inconclusive [inhibitor, partial curve] | 
O=C(COc1coc(CN2CCc3ccccc32)cc1=O)Nc1ccc([N+](=O)[O-])cc1 |  | inactive: 0.2%
COc1cc(/C=C/c2noc(-c3ccccc3O)n2)cc(OC)c1OC | inconclusive [inhibitor, full curve, poor fit] | 
